About 1,100 (0.39%) of roughly 280,000 compounds were called active. Inconclusive results, whose numbers are uncertain, are shown with a selection of clear calls. Calls follow the shape of the dose curve; as a rule, active = well fitted inhibition curve with a large enough effect; inconclusive = small, poorly fitted or top-dose-only effect, or effect the other way; inactive = flat fitted curve, though single readings scatter. Potencies of inconclusive entries are doubtful fits and often do not repeat.
Each compound was assayed against Microtubule-associated protein tau (Homo sapiens) (UniProt P10636) (assay: qHTS for Inhibitors of Tau Fibril Formation, Fluorescence Polarization). Conditions: K18 P301L tau heparin fibrillization, Alexa594 FP, 6 h; series mostly up to 57.7 µM; activity, negative = inhibition: at the top concentration.
Procedure, shortened: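 Human K18 P301L fragment (15 uM unlabeled plus 0.24 uM Alexa 594-labeled) in 100 mM sodium acetate pH 7 with compound, aggregation induced by 20 uM heparin for 6 hr at 37 C. ThT (30 uM) added for 1 hr, then Alexa 594 FP read.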
% is scaled to controls: 0 for no effect and ±100 for the full control effect; potency is read from the fitted curve at half-maximal effect; tags tell the direction and shape of the fitted curve.
Also: nearly all actives have a fitted effect of over 55% in size.

UniProt P10636, sequence (P10636 whole entry, looked up, the tested form may be a part): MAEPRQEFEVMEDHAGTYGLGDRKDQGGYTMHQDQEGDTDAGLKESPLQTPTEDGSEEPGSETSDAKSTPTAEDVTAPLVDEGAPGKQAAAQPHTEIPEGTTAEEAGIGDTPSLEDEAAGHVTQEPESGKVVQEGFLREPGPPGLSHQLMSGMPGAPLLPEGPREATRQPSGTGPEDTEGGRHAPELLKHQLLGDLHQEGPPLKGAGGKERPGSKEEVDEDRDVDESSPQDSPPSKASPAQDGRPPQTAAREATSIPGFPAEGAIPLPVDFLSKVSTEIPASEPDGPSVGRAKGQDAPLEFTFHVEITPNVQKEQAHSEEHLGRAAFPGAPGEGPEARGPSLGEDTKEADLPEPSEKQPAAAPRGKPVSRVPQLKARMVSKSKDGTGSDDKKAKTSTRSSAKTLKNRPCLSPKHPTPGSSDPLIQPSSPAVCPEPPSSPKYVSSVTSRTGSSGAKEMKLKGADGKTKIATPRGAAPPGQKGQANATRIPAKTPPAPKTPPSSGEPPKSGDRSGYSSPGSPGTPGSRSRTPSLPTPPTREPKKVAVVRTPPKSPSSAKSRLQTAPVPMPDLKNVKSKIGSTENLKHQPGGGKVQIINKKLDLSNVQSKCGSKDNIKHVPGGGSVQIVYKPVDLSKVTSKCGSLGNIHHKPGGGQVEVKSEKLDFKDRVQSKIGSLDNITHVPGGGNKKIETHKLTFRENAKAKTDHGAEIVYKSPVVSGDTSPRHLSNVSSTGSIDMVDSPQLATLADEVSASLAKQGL

Potency, inconclusive:
CSC1=NSC2=NC(=O)/C(=C\c3coc4ccccc4c3=O)C(=N)N12 1.41 µM [inhibitor, partial curve]
CCc1ccc(NC(=O)Cn2c(=O)n(CCC(=O)NCc3ccc4c(c3)OCO4)c(=O)c3ccccc32)cc1 3.55 µM [inhibitor, partial curve]
CC(=O)c1ccc(NC(=O)CCc2c(C)nc3cc(-c4ccc(Cl)cc4)nn3c2C)cc1 22.4 µM [inhibitor, partial curve, poor fit]
CCCCOC(=O)CSc1nc(N)c(C#N)c(-c2ccc(OC)cc2)c1C#N 15.8 µM [inhibitor, partial curve]
COc1cccc(N=C2SC(C(=O)Nc3ccc(F)cc3)CC(=O)N2C)c1 (stereo unspecified) 35.5 µM [inhibitor, single point]
Cc1nc(C)c(-c2csc(NCc3ccco3)n2)s1 10 µM [activator, partial curve]
CC[C@H](C)[C@@H]1NC(=O)c2cc([N+](=O)[O-])cc(I)c2SC[C@@H](C(N)=O)NC(=O)[C@H](CCCCN)NC1=O 31.6 µM [inhibitor, single point]
Cc1cc(C(=O)Nc2ccc(C(C)C)cc2)c2c(C)nn(-c3ccccc3)c2n1 44.7 µM [inhibitor, single point]
CCOc1ccccc1NC(=O)Cn1cc(C(=O)c2ccc(Cl)cc2)c(=O)c2ccc(C)nc21 28.2 µM [inhibitor, single point]
COc1ccccc1CNc1ccc(-c2nc(-c3ccco3)no2)cc1[N+](=O)[O-] 31.6 µM [inhibitor, partial curve]
C=CC1=C(C)/C(=C/c2[nH]c(Cc3[nH]c(/C=C4\NC(=O)C(C)=C4C=C)c(C)c3CCC(=O)O)c(CCC(=O)O)c2C)NC1=O 31.6 µM [inhibitor, partial curve]
N#C/C(=C\c1ccc[nH]1)Sc1nc2ccccc2s1 17.8 µM [inhibitor, partial curve]
CCOC(=O)c1c(-c2ccccc2)csc1NC(=O)c1cc(-c2ccc(F)cc2)on1 39.8 µM [inhibitor, single point]
COc1ccccc1[C@H]1C(c2ccc(F)cc2)=NN(c2ccccc2)[C@@H]1CO 6.31 µM [activator, partial curve]
CCCc1ccc(-c2cc(C(=O)NC3=NCCS3)c3ccccc3n2)cc1 31.6 µM [inhibitor, partial curve, poor fit]
Clc1ccc(-c2nc(NCCCN3CCOCC3)c3ccccc3n2)cc1 22.4 µM [inhibitor, partial curve]
COc1cc2c(cc1NC(=O)c1cccc(S(=O)(=O)N(C)C)c1)oc1ccccc12 8.91 µM [inhibitor, partial curve]
COc1ccc(/C=N/NC(=O)c2cccnc2)cc1COc1ccc(NC(C)=O)cc1 3.98 µM [activator, full curve, poor fit]
NC(=O)c1cc(-c2ccccc2)sc1NC(=O)CN1CCCCC1 39.8 µM [inhibitor, single point]
Nc1ccc(S(=O)(=O)Nc2nccc(/C=C/c3ccc(Cl)cc3Cl)n2)cc1 39.8 µM [inhibitor, single point]
CNC(=O)c1ccsc1NC(=O)c1ccc2c(c1)CCCC2 17.8 µM [inhibitor, partial curve]
CCc1ccc(OCCCn2c(-c3ccc(Cl)cc3)nc3ccccc3c2=O)cc1 31.6 µM [inhibitor, single point]
Cc1ccc(-c2nc3scc(CCNS(=O)(=O)c4ccc(F)c(C)c4)n3n2)cc1 31.6 µM [inhibitor, partial curve]
CC(=O)Nc1ccc(S(=O)(=O)N2CCN(CCCOc3ccccc3Cl)CC2)cc1 28.2 µM [inhibitor, partial curve, poor fit]
CN(CC(=O)Nc1nc2ccccc2s1)S(=O)(=O)c1ccc(Br)cc1 39.8 µM [inhibitor, single point]
O=C(N=c1ccn(-c2nc3ccccc3nc2NS(=O)(=O)c2ccc(Cl)cc2)cc1)c1cccs1 11.2 µM [inhibitor, partial curve, poor fit]
Cc1[nH][nH]c(=O)c1C(c1ccc(-c2ccc(Cl)c(Cl)c2)o1)c1c(C)[nH][nH]c1=O 11.2 µM [inhibitor, partial curve]
COc1ccc(C(=O)Nc2cc(C(C)C)c(O)c(S(=O)(=O)c3ccc(Cl)cc3)c2C)cc1 20 µM [inhibitor, single point]

activity, negative = inhibition, inactive:
COc1cccc(-c2csc(NC(C)=O)n2)c1 4.75%
Cn1c(=O)c2c(nc(NCc3ccccc3)n2Cc2ccccc2Cl)n(C)c1=O 2.92%
Cc1ccccc1-n1c(C)nc2ccccc21 0.6%
CCOCCCNc1nc2c(C)cccn2c(=O)c1/C=C1\SC(=S)N(CC(C)C)C1=O 1.75%
N#Cc1c(Sc2ncc(C(F)(F)F)cc2Cl)nsc1C/C=N\OCc1ccccc1Br 0.346%
CN(c1ccccc1)S(=O)(=O)c1nnc(NC(=O)c2ccccc2)s1 -0.54%
CCSC1=N/C(=C/c2ccsc2)C(=O)N1c1ccccc1 -6.3%
O=C(NNC(=S)Nc1ccccc1)c1ccc2ncccc2c1 -2.96%
Cc1ccc2cc(CCNC(=O)c3ccc(S(=O)(=O)N4CCCCC4)cc3)c(=O)[nH]c2c1 -12.5%
O=c1[nH]c(-c2ccccc2F)nc2c1sc(=S)n2Cc1ccccc1 -0.21%
COC(=O)Cn1c(=O)c2c(nc3n2CCN3c2ccc(F)cc2)n(C)c1=O -3.96%
CN(C)S(=O)(=O)c1ccc(C(=O)NNc2nc(-c3ccccc3)c3cc(Br)ccc3n2)cc1 -7.38%
CCn1ccnc1CN(C)Cc1cn[nH]c1-c1ccc(F)cc1F -0.509%

Reference: PubChem BioAssay AID1468 (National Center for Advancing Translational Sciences (NCATS), 2008)
